Measured values published in US8916681B2, “Compound, use and method” (Medical Research Council, priority 2007, dated 2014).
Where “and” joins values, the source holds several entries; their conditions need not be identical. Equal entries are not always repeated. Some of these results come from one statement about several compounds together. The name of at least one read-out is uncertain. Non-standard residues stand in square brackets, D forms with d. Residues, ends and D or L forms follow the SMILES beside them.

Target: GPR54 (Homo sapiens, UniProt Q969F8)
Assay: Inositol phosphate (IP) antagonism assay: inhibition of 10 nM kisspeptin-10 stimulation of IP in CHO/gpr-54 cells
Format: cell-based
Set-up: G. Vassart, Univ; Brussels
Settings: for Inhibition of IP stimulation by 10 nM Agonist: % Inhibition of Max: CHO cells; for IC50: read-out: Inhibition of IP stimulation by 10 nM Agonist: IC50, CHO cells, unit inferred, given in M
Procedure: Inositol-3-phoshate Antagonistic Assay—Cell monolayers had 0.5 mls HEPES modified DMEM supplemented with […] for 30 mins at 37° C. to block IP3 breakdown. Cells were then stimulated with 0.25 mls 10 nM Kisspeptin-10 plus 0.25 mls of 10 nM Kisspeptin-10 or analogues (10 pM-10 uM) diluted at 1:1000 in the above media for 1 hr at 37° C., then in 10 mM Formic acid at 4° C. for 1 hr to lyse cells. Lysate was then transferred to plastic tubes containing 0.5 mls Dowex resin to bind the radioactive IP3 and the resin was then washed with 1 ml H2O. The resin was then washed with 60 mM NH4 formate/5 mM Sodium tetraborate followed by 1M NH4 formate/0.1M Formic acid to release the bound radiation. Then 800 μls of the radioactive solution were transferred to scintillation vials containing 2.5 mls scintillation fluid and radioactivity counted on a Beta counter for 60 seconds.
Chinese hamster ovary (CHO) cells stably-expressing the human gpr-54 receptor (CHO/gpr-54) were obtained from Prof. G. Vassart, Univ. Brussels. The cells were maintained in Dulbecco's modified Eagle's medium (DMEM; Sigma) supplemented with 10% fetal calf serum, 2% glutamine and 1% penicillin (10,000 units/ml)/streptomycin ([…]) at 37° C. in a humidified 5% CO2 atmosphere.
Experiments were repeated 3-5 times. IP production was plotted as mean values±SEM and analyzed using a Student's t-Test ([…]).

Sequence of UniProt Q969F8 (Q969F8 whole entry): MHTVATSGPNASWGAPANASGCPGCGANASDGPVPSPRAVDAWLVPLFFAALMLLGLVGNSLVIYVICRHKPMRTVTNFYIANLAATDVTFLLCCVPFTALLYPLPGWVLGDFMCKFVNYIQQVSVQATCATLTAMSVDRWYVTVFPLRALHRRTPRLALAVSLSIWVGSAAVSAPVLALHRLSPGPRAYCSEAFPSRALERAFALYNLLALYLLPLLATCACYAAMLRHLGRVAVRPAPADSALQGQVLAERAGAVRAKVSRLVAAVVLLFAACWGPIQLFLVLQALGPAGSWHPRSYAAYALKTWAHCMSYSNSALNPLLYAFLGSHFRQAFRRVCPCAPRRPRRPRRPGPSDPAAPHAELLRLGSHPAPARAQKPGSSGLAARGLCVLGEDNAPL

| Compound | Inhibition of IP stimulation by 10 nM Agonist: % Inhibition of Max | IC50 [µM] |
| --- | --- | --- |
| CC(=O)N[C@H](Cc1ccc(O)cc1)C(=O)N[C@@H](CC(N)=O)C(=O)N[C@@H](Cc1c[nH]c2ccccc12)C(=O)N[C@@H](CC(N)=O)C(=O)NCC(=O)N[C@@H](Cc1ccccc1)C(=O)NCC(=O)N[C@H](Cc1c[nH]c2ccccc12)C(=O)N[C@@H](CCCNC(=N)N)C(=O)N[C@@H](Cc1ccccc1)C(N)=O [Peptide 230] (Ac-[dY]NWNGFG[dW]RF-NH2) | 66-93% and 81% | < 0.01 |
| CC(=O)N[C@@H](Cc1ccc(O)cc1)C(=O)N[C@@H](CC(N)=O)C(=O)N[C@@H](Cc1c[nH]c2ccccc12)C(=O)N[C@@H](CC(N)=O)C(=O)N[C@H](C)C(=O)N[C@@H](Cc1ccccc1)C(=O)NCC(=O)N[C@H](Cc1c[nH]c2ccccc12)C(=O)N[C@@H](CCCNC(=N)N)C(=O)N[C@@H](Cc1ccccc1)C(N)=O [Peptide 233] (Ac-YNWN[dA]FG[dW]RF-NH2) | 66-93% and 80% | < 0.01 |
| CC(=O)N[C@@H](Cc1ccc(O)cc1)C(=O)N[C@H](CC(N)=O)C(=O)N[C@@H](Cc1c[nH]c2ccccc12)C(=O)N[C@@H](CC(N)=O)C(=O)NCC(=O)N[C@@H](Cc1ccccc1)C(=O)NCC(=O)N[C@H](Cc1c[nH]c2ccccc12)C(=O)N[C@@H](CCCNC(=N)N)C(=O)N[C@@H](Cc1ccccc1)C(N)=O [Peptide 232] (Ac-Y[dN]WNGFG[dW]RF-NH2) | 66-93% and 75% | < 0.01 |

Other lines, results leading:

| Inhibition of IP stimulation by 10 nM Agonist: % Inhibition of Max | IC50 [µM] | Compound |
| --- | --- | --- |
| 66-93% and 66% | < 0.01 | CC(=O)N[C@@H](Cc1ccc(O)cc1)C(=O)N[C@H](C)C(=O)N[C@@H](Cc1c[nH]c2ccccc12)C(=O)N[C@@H](CC(N)=O)C(=O)NCC(=O)N[C@@H](Cc1ccccc1)C(=O)NCC(=O)N[C@H](Cc1c[nH]c2ccccc12)C(=O)N[C@@H](CCCNC(=N)N)C(=O)N[C@@H](Cc1ccccc1)C(N)=O [Peptide 236] (Ac-Y[dA]WNGFG[dW]RF-NH2) |
| 66-93% | < 0.01 | CC(=O)N[C@H](C)C(=O)N[C@@H](CC(N)=O)C(=O)N[C@@H](Cc1c[nH]c2ccccc12)C(=O)N[C@@H](CC(N)=O)C(=O)NCC(=O)N[C@@H](Cc1ccccc1)C(=O)NCC(=O)N[C@H](Cc1c[nH]c2ccccc12)C(=O)N[C@@H](CCCNC(=N)N)C(=O)N[C@@H](Cc1ccccc1)C(N)=O [Peptide 234] (Ac-[dA]NWNGFG[dW]RF-NH2) |
| 66-93% and 71% | < 0.01 | CC(=O)N[C@@H](Cc1ccc(O)cc1)C(=O)N[C@@H](CC(N)=O)C(=O)N[C@H](C)C(=O)N[C@@H](CC(N)=O)C(=O)NCC(=O)N[C@@H](Cc1ccccc1)C(=O)NCC(=O)N[C@H](Cc1c[nH]c2ccccc12)C(=O)N[C@@H](CCCNC(=N)N)C(=O)N[C@@H](Cc1ccccc1)C(N)=O [Peptide 235] (Ac-YN[dA]NGFG[dW]RF-NH2) |
